{"source": "paper PMC12136788", "binders": {"B1": {"name": "49064582_49067141_2978_CDS_ENSG00000008294_ENST00000262013|human|control|control (ssRNA)", "RNA": "GGGAGUUCUACAGUCCGACGAUCUGCAUCUGAGUCAUUGCUCGACUGAUACACUGGGGAGAGGUCUUCUGGGAUCUGAACUCCCAAAGGAUCUGUAAAGACAUGCUCUGUGUAGACGCCAGUUUGGGAGAUGUCCACUGUGUCCAACAGAGGAUUGAGCAUCA"}, "B2": {"name": "chr17:27185601:27185602:+_ENSG00000132591_ENST00000254928|hu_hu|motif|central (ssRNA)", "RNA": "GGGAGUUCUACAGUCCGACGAUCGACCACACCUUCAGUGAGGGCUGCCGUGAGCUCCAGGAGAACUGACUUCUGCUUCAAACAAUCGGCCUUGUUCAUGACCAGGACACUAGGGAUCUGGGAGUACUUGGUCAAGCACCUGAGCAACAGAGGAUUGAGCAUCA"}, "B3": {"name": "chr17:20919178:20919179:-_ENSG00000124422_ENST00000537526|hu_mus|FALSE|FALSE (ssRNA)", "RNA": "GGGAGUUCUACAGUCCGACGAUCGAGGACGUCCAGGGCUGCAAUGAGGAACUCAUGUGCGUCCUGCUGCUCAUAACCCGCCAGGUGCCGGGCGUGCGUCCACACCAGGUGCAGCAGCUUGUAUGGAAUGUGUGGGGAGCGGUGCAACAGAGGAUUGAGCAUCA"}, "B4": {"name": "25472531_25475120_120_CDS_ENSG00000119772_ENST00000380746|human|control|control (ssRNA)", "RNA": "GGGAGUUCUACAGUCCGACGAUCACACUCGUCUUUCAGGCUACGAUCCACGCGCCCAUUCCUUCUCACAACCCGCUCCAGGAUCCCCAUAAGGCCAGGUGCAGCCCCUCUGCAGUCGCGCUCAGGUGUGAGCCGCGGCCCUGACAACAGAGGAUUGAGCAUCA"}, "B5": {"name": "chr1:46159212:46159213:+_ENSG00000159596_ENST00000372025|hu_mus|hu_hu_hu_mus_True|18_98 (ssRNA)", "RNA": "GGGAGUUCUACAGUCCGACGAUCUCUGAUCCCUCCCAAGAAAGAUAGGAAACCGGCUCCAUAAGCCAUCUGAGUGAAAGCUAGGACGGGGAUAUAAGACUUUGUUAUUACCAUGAGCAGUGGUGGAGCAGUAAAGGGGAUUAACAACAGAGGAUUGAGCAUCA"}, "B6": {"name": "chr4:103723762:103723763:-_ENSG00000109332_ENST00000394803|hu_mus|FALSE|FALSE (ssRNA)", "RNA": "GGGAGUUCUACAGUCCGACGAUCUGUAAAUGCAACCUUAGGUGGUUUGAAGGGGUAGUCUGUAGGAAAAUGAAUUGUCAAAAAGAAUACACCACCUUGAUAUGGGCUGUCAUUAGGUCCCAUAAUUGUGGCUUGCCAAUGAAACAACAGAGGAUUGAGCAUCA"}, "B7": {"name": "chr3:108163977:108163978:+_ENSMUSG00000068747_ENSMUST00000102632|mus_mus|FALSE|FALSE (ssRNA)", "RNA": "GGGAGUUCUACAGUCCGACGAUCGUUUCUGUGCAUGGGGAUAAGAAGAAUGCAGCCCAAACCCUUCUCCCUGGAGGCUCAAACACAGGGACUCAGCAGAGCUGCCAGGGGACAGGAAGUCACCUGACCACAGCUGAGGGCAUGCAACAGAGGAUUGAGCAUCA"}, "B8": {"name": "49437221_49447787_131_CDS_ENSG00000166200_ENST00000299259|human|control|control (ssRNA)", "RNA": "GGGAGUUCUACAGUCCGACGAUCGUACUGAUUUUCCAAAUCCACAUUUGGCUCGGAGUUACUAUCUUCAGAGUAUUCCAGGUCGUAGUCCUCCUCAUCAUCGCACAUGAAAUCAUCCUCCAUGUCAGACAUCUUGGCCGGGAGCAACAGAGGAUUGAGCAUCA"}, "B9": {"name": "chr2:198266515:198266516:-_ENSG00000115524_ENST00000335508|hu_mus|FALSE|FALSE (ssRNA)", "RNA": "GGGAGUUCUACAGUCCGACGAUCCUUCAUUUCUUCAUCAGGAGACUGAAAUUCUCGAAUGAGGAUUAACAUCACUUCUCUAGUAUAGUAGUUGGCAUAUUCUGCAUCCAUAAGAGGAAUAAGAUACCCAAUAGCCUUCAAGAACAACAGAGGAUUGAGCAUCA"}, "B10": {"name": "chr13:97419678:97419679:-_ENSMUSG00000021670_ENSMUST00000022176|mus_mus|motif|central (ssRNA)", "RNA": "GGGAGUUCUACAGUCCGACGAUCAGACACUUAAUUACAACAUAUACAGAUUGAUAGUUUACCAAAAAAUCUAGAGUUCAGCGGAAUAAGUUAAAAUGUCUCUAAAAGAAACUUGGCUUAGAGAAAUGGUCGUUUGUUUUUUGUCAACAGAGGAUUGAGCAUCA"}, "B11": {"name": "47180648_47180768_1381_ncRNA_ENSMUSG00000021377_ENSMUST00000138401|mouse|control|control (ssRNA)", "RNA": "GGGAGUUCUACAGUCCGACGAUCUCCCAGUUUUUGAAGCUGUGAUGUGUUUAUCCUCAUUAUAAAAUUUCUAUGACACUUAGAGUUAACACAACCACAUUGAUGACACUUUGAGGGCAAAGCAGAACUGGACAGUCCUCAGUGCAACAGAGGAUUGAGCAUCA"}, "B12": {"name": "chr1:202722107:202722108:-_ENSG00000117139_ENST00000367264|hu_hu|FALSE|FALSE (ssRNA)", "RNA": "GGGAGUUCUACAGUCCGACGAUCCAUGAUGGUCACAAGCUGAUGGAGGAGAUCCGGCUGGGACACAAAGAGUUCUGGAGCUAGUUUCUUCAUUACAUUUUCUAGCUGCUCAGCAGCAUACCCUGGGACUCCAUACCAGGUUUUCAACAGAGGAUUGAGCAUCA"}, "B13": {"name": "chr16:45382771:45382772:-_ENSMUSG00000022661_ENSMUST00000163230|mus_mus|mus_mus_mus_hu_True|48_68 (ssRNA)", "RNA": "GGGAGUUCUACAGUCCGACGAUCCUGGGUCAUGUUAUAAGACAAAUGGACAGGGAGGGCAUGCUUCUGUAAAGAUGUGAGCUAUUGACUAAGACUAACAAUAUUUAUCUAGCUAUAAAAAUAAGUUAAAUGAAUAAGUUAAGACAACAGAGGAUUGAGCAUCA"}, "B14": {"name": "chr6:128383251:128383252:-_ENSMUSG00000030357_ENSMUST00000032508|mus_hu|FALSE|FALSE (ssRNA)", "RNA": "GGGAGUUCUACAGUCCGACGAUCGUUGAGGUGAGAGGCCAGUCGAAGGGCCUGUGCUUUCUGUGCUUCCUCAUUGGAAAAACUAGACUCAUAUUCCAGCCAAGACACGAUCUUCUUAUACUGUAGUAAAGCUUGCUUGUAUUUCAACAGAGGAUUGAGCAUCA"}}, "note": "Some of the results follow.", "data": [{"target": "T1, UNK ZnF1-3 (human, UniProt Q9C0B0 31-174)", "T1 sequence": "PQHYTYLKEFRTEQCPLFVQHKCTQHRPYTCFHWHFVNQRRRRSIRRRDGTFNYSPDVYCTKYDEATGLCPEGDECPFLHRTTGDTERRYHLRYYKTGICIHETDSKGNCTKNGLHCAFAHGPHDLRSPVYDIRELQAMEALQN", "assay": "nsRBNS (natural sequence RNA bind-n-seq); RBNS binding buffer (assumed for nsRBNS): 25 mM Tris pH 7.5, 150 mM KCl, 3 mM MgCl2, 0.01% Triton X-100, 500 ug/ml BSA, 20 U/ml SUPERase-In, 4 C; UNK is unkempt and MSI1 is Musashi-1; names of the RNAs are library labels; protein concentration not given here; high values mean tight binding", "units": {"binding signal": "enrichment R"}, "values": [{"binder": "B1", "binding signal": 0.639}, {"binder": "B2", "binding signal": 1.41}, {"binder": "B3", "binding signal": 0.926}, {"binder": "B4", "binding signal": 0.855}, {"binder": "B5", "binding signal": 1.97}, {"binder": "B6", "binding signal": 1.44}, {"binder": "B7", "binding signal": 0.834}, {"binder": "B8", "binding signal": 0.523}, {"binder": "B9", "binding signal": 1.35}, {"binder": "B10", "binding signal": 1.25}, {"binder": "B11", "binding signal": 0.792}, {"binder": "B12", "binding signal": 0.946}, {"binder": "B13", "binding signal": 2.02}, {"binder": "B14", "binding signal": 0.763}]}]}
